Out of some 360,000 compounds screened, about 7,500 (2.1%) were called active. About 20% were inconclusive and are not listed. Calls come from the whole dose curve; as a rule, active = well fitted inhibition curve with a large enough effect; inconclusive = small, poorly fitted or top-dose-only effect, or effect the other way; inactive = flat fitted curve, though single readings scatter. Only a part is listed here, and it is no random draw. Some structures have more than one record in an assay (separate samples or runs), and their calls can disagree. Bridge positions count the residues as written; N and C are the ends. Square brackets hold non-standard residues; d marks the D form. Peptide text beside a SMILES is read from it. * marks the point of attachment. X1 = CCC(C)C(N)C1=NC(C(=O)*)CS1; dOrn = NCCC[C@@H](N)C(=O)O
% is set by controls: 0 for no effect and ±100 for the full control effect; potency is the fitted concentration of half-maximal effect.

The test in a line: Nrf2 qHTS screen for inhibitors. Note: nearly all actives have a fitted effect of over 60% in size. Particulars: A549 ARE-Fluc reporter, luciferase luminescence, 18-24 h; series mostly up to 46 µM; activity change, negative = inhibition: at the top concentration. Put shortly: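 A549 ARE_Fluc cells (5000/well, 5% FBS OPTI-MEM) pre-incubated 2 h, then treated with compounds 18-24 h at 37C/5% CO2 in concentration-response. CellTiter-Fluor viability read first; BugLite luciferase luminescence after 15 min at room temperature gives Nrf2 activity.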
For orientation: Quantitative high-throughput screening tests each substance at several concentrations.
As to `O=C(C[C@H]1C/C=C\CC[C@@H](Cc2ccc(F)cc2)C(=O)OC[C@H]2CCCN2C1=O)N[C@H](CO)Cc1ccccc1`, the “activity change, negative = inhibition” value was inactive: -7.43%.
For the compound `CCCN1CCC(=O)N(CCSc2ccc(C)cc2)CC1`, the “activity change, negative = inhibition” value is inactive: 17%.
For `COc1ccc(N2CCN(C(=O)CCCCn3c(=O)[nH]c4ccsc4c3=O)CC2)cc1`, the activity change, negative = inhibition was inactive: -6.65% [at 9.27 µM].
In the case of `CCOc1ccc(NS(=O)(=O)c2ccc(C(=O)N3CCN(c4ncccn4)CC3)cc2)cc1`, the Potency was active: 16.4 µM.
In the case of `CC(C)(C)[C@@H]1COC(=O)[C@H](Cc2ccc(F)cc2)CC/C=C\C[C@@H](CC(=O)N(CCO)Cc2ccccc2)C(=O)N1`, the “activity change, negative = inhibition” value is inactive: -15.5%.
On to `Cc1ccc(F)c([C@H]2[C@H]3C=CC[C@@H](C)[C@@H]3C(=O)N2Cc2ccccc2)c1`, for which the “activity change, negative = inhibition” value was inactive: -5.38%.
The same measure, in the same setting: next, `CCC(C)C(N)C1=NC(C(=O)N[C@@H](CC(C)C)C(=O)N[C@H](CCC(=O)O)C(=O)N[C@H](C(=O)N[C@H]2CCCCNC(=O)[C@H](CC(N)=O)NC(=O)[C@@H](CC(=O)O)NC(=O)[C@H](Cc3cnc[nH]3)NC(=O)[C@@H](Cc3ccccc3)NC(=O)[C@H]([C@@H](C)CC)NC(=O)[C@@H](CCCN)NC2=O)[C@@H](C)CC)CS1` (some centres not stated) (X1-L[dE]IK[dOrn]I[dF]H[dD]N; lactam 4-C): inactive: 2.91%; `COc1ccc(-c2nn(-c3ccccc3)cc2/C=C(/C#N)C(N)=O)cc1[N+](=O)[O-]`: inactive: -0.115%.
Regarding `CC1(C)CC(N2CCN(C(c3ccccc3)c3ccccc3)CC2)=CC(=[N+]2CCCCC2)C1`, the Potency is active: 7.31 µM.
In the case of `CN(c1ccccc1)c1ccc(/C=C(\CCC(=O)O)c2nc3ccccc3s2)cc1[N+](=O)[O-]`, the “activity change, negative = inhibition” value is inactive: -12.9%.
On the same count and under the same terms, next, `CCC1CN(C(=O)N2CCC(C(=O)NCc3ccco3)CC2)c2cc(C)ccc2O1` (configuration not stated): inactive: -18%.
Consider `Cc1ccc(-c2nc(CSCC(=O)N3CCN(c4ccccn4)CC3)c(C)o2)cc1`, for which the Potency is active: 16.4 µM.
For the compound `COc1ccccc1CNC(=O)CCS(=O)(=O)c1ccc2c(c1)CC(C)N2C(=O)C1CC1` (configuration not stated), the “activity change, negative = inhibition” value was inactive: -20.2%.
Turning to `O=C(C[C@H]1C/C=C\CC[C@H](Cc2ccc(F)cc2)C(=O)OC[C@H]2CCCN2C1=O)N[C@@H](CO)Cc1ccccc1`, the “activity change, negative = inhibition” value is inactive: 0%.
Regarding `CN(C)CCCNC(=O)/C=C/c1ccc(OCc2c(F)cccc2Cl)cc1`, the Potency is active: 20.6 µM.
In the case of `COc1ccc(-c2noc(N3CCC(C(=O)Nc4ccc(OC)c(OC)c4)CC3)n2)cc1`, the “activity change, negative = inhibition” value is inactive: -7.18%.
Take `CCC1CN(C(=O)NCc2ccccc2)c2cc(C)ccc2O1` (configuration not stated): the “activity change, negative = inhibition” value was inactive: -0.967%.
`Cc1ccc2occ(CC(=O)Nc3ccc(S(=O)(=O)N4CCCC(C)C4)cc3)c2c1` (configuration not stated): the Potency is active: 20.6 µM.
Regarding `CC(C)(C)[C@@H]1COC(=O)[C@H](Cc2ccc(F)cc2)CC/C=C\C[C@H](CC(=O)N(CCO)Cc2ccccc2)C(=O)N1`, the “activity change, negative = inhibition” value is inactive: -24.2%.
Same read-out and setting: next, `CC1CC=CC2C1C(=O)N(Cc1ccccc1)C2c1ccc(F)c(-c2ccc(N(C)C)cc2)c1` (configuration not stated): inactive: -14.8%; `CC(=O)C[C@H](O)CC(=O)[C@H]1OC(=O)[C@H](C)C/C=C\Cc2ccccc21`: inactive: 0.141%.
Consider `COc1ccc(-c2nc(CSCC(=O)N3CCN(c4ccccc4F)CC3)c(C)o2)cc1`, for which the Potency is active: 5.8 µM.
For `Cc1cccc(NC(=O)C(=O)NCCCN2CCOCC2)c1`, the “activity change, negative = inhibition” value was inactive: -12.7%.
Still for that read-out and setting: under `O=C(Nc1cnn(Cc2ccc(F)cc2)c1)c1cnn2c(C(F)F)cc(-c3ccccc3)nc12` stands inactive: -0.391%; under `CCO[C@H]1OC(C(=O)N2CCN(Cc3ccc4c(c3)OCO4)CC2)=C[C@@H](c2ccc(C(F)(F)F)cc2)[C@@H]1CCCO`, inactive: -12.5%.
Regarding `CCOc1ccc(OCC)c(NC(=O)C2CCN(S(=O)(=O)c3ccc4c(c3)CC(C)N4C(C)=O)CC2)c1` (configuration not stated), the “activity change, negative = inhibition” value is inactive: -17.9%.
For the compound `CC(C)(C)n1ncc2c(=O)n(Cc3c(F)cccc3Cl)cnc21`, the “activity change, negative = inhibition” value is inactive: -28.2%.
`O=C(Nc1ccc(OC(F)(F)F)cc1)c1[nH]ncc1[N+](=O)[O-]`: the Potency was active: 7.31 µM.
As to `CC1CCCCC1NS(=O)(=O)c1ccc(S(=O)(=O)NCc2ccncc2)cc1` (configuration not stated), the Potency is active: 2.31 µM.
The same measure, in the same setting: under `COc1ccc(C2Nc3ccccc3C(=O)N2Cc2ccco2)cc1CN1C(=O)c2ccccc2C1=O` (configuration not stated) stands “inactive”.
As for `N=c1c2c(ncn1CCN1CCOCC1)Oc1ccc3ccccc3c1C2c1ccccc1` (configuration not stated), the “activity change, negative = inhibition” value was inactive: -1.25%.
Regarding `Cc1cc(C(=O)N[C@@H](c2ccccc2)[C@]2(C)C[C@H]2[C@@H](C)C(=O)Nc2ccc3ccccc3c2)no1`, the “activity change, negative = inhibition” value was inactive: 9.62%.
As to `C#Cc1ccc([C@@H]2C=C(C(=O)NCc3ccccc3)O[C@H](OCC)[C@H]2CCCO)cc1`, the “activity change, negative = inhibition” value is inactive: -13.1%.
Regarding `CCCCOC(=O)c1[nH]c2c(c1C)C(=O)CC(c1cc(OC)c(OC)c(OC)c1)C2` (configuration not stated), the Potency is active: 13 µM.
As to `CCOc1ccc(NC(=O)Cn2c(=O)n(CC3CCCO3)c(=O)c3ccccc32)cc1` (configuration not stated), the “activity change, negative = inhibition” value is inactive: -6.42%.
Still for that read-out and setting: under `Cc1cc2[nH]c(=O)c(=O)[nH]c2cc1S(=O)(=O)N1CCN(c2cccc(C)c2C)CC1` stands inactive: 8.76%; under `C=CC[C@@H](CC(=O)N[C@@H](CO)Cc1ccccc1)C(=O)NC[C@@H](OC(=O)[C@@H](CC=C)Cc1ccc(F)cc1)c1ccccc1`, inactive: 1.26%.
The same measure, in the same setting: under `COc1ccc2c(c1)C(=O)[C@H](O)[C@@H](c1ccc(OC)c(Br)c1)O2` stands inactive: 6.34%.
Still for that read-out and setting: under `CCCCCCNC(=O)N1C/C=C\C(c2ccc(OC)cc2)N(Cc2ccc(F)cc2)C(=O)C1` (configuration not stated) stands inactive: -15.9%; under `Cc1ccc(Cl)cc1NC(=O)c1cc(S(=O)(=O)N2CCOCC2)cn1C`, inactive: -16%.
With `Cc1c(C)n(Cc2ccccc2)c2ncnc(NN)c12`, the Potency is active: 25.9 µM.
Consider `CCc1ccc(NC(=O)C2CCN(S(=O)(=O)c3c(C)noc3C)CC2)cc1`, for which the “activity change, negative = inhibition” value is inactive: 11.7%.
On the same count and under the same terms, under `O=C(Nc1ccc(F)c(Cl)c1)C1CCCN(c2cnccn2)C1` (configuration not stated) stands inactive: -22.2%.
Take `COc1ccc(NC(=O)CCN2C(=O)[C@@H]3[C@H](C2=O)[C@H]2C=C[C@@H]3C2)cc1`: the “activity change, negative = inhibition” value was inactive: 3.44%.
As to `Cc1nc(NC(=O)c2ccccc2)sc1-c1csc(NCc2ccccc2)n1`, the Potency is active: 20.6 µM.
In the case of `CC(=O)n1cc([C@H]2C=C(C(=O)N3CCOCC3)O[C@@H](OCc3ccc(CO)cc3)C2)c2ccccc21`, the “activity change, negative = inhibition” value was inactive: -9.09%.
With `Cc1cccc(N2CCN(S(=O)(=O)c3ccc4c(c3)CC(=O)N4C)CC2)c1C`, the “activity change, negative = inhibition” value is inactive: 7.36%.
The same measure, in the same setting: next, `CCCC(=O)Nc1nnc(S(=O)(=O)N2CCCCCC2)s1`: inactive: 11.1%; `OCC[C@@H]1C[C@H](O)[C@@H](O)[C@]2(Cc3ccccc3CO2)O1`: inactive: -9.22%; `C[C@@H]1CCC[C@]2(O[C@@H](CCO)C[C@H](O)[C@H]2O)O1`: inactive: 6.5%.
On the same count and under the same terms, under `Cc1ccc(C)c(OCCn2c(CCNC(=O)C3CCCCC3)nc3ccccc32)c1` stands inactive: 17%; under `C=CC[C@H](CC(=O)N(CCO)Cc1ccccc1)C(=O)NCCOC(=O)[C@H](CC=C)CC(=O)OC(C)(C)C`, inactive: -12.6%.
`COc1ccc(CC(=O)Nc2cccc(-c3ccc4nncn4n3)c2)cc1OC`: the Potency is active: 20.6 µM.
As for `CSc1ccc(CCNC(=O)CN2C(=O)c3cccnc3Oc3ccc(C)cc32)cc1`, the “activity change, negative = inhibition” value was inactive: -16.4%.
Same read-out and setting: next, `COC(=O)c1cc2occc2n1Cc1cccc(C)c1`: inactive: -1.97%; `CC(=O)C[C@@H](O)CC(=O)[C@H]1OC(=O)[C@@H](C)C/C=C\Cc2ccccc21`: inactive: 8.88%; `COc1cccc(C2c3c(ncn(-c4ccccc4)c3=N)Oc3ccc4ccccc4c32)c1` (configuration not stated): inactive: 5.57%.
The same measure, in the same setting: next, `COC(=O)c1cc(-c2ccc(OC)c(OC)c2)c2c(=O)[nH]c(=O)n(C)c2n1`: inactive: -23.6%; `Cc1c(C)n(C)c2ccc(C(=O)N3CCN(c4ccccc4)CC3)cc12`: inactive: -12.1%.
In the case of `O=C1N[C@@H](c2ccccc2)COC(=O)[C@H](Cc2ccc(F)cc2)C/C=C\C[C@H]1CC(=O)N(CCO)Cc1ccccc1`, the “activity change, negative = inhibition” value was inactive: -3.31%.
The same measure, in the same setting: next, `O=C(CNC(=O)C1CCCCC1)OC(C(=O)c1ccccc1)c1ccccc1` (configuration not stated): inactive: -1.29%.
For `COC(C[C@H]1O[C@@H]1[C@@H](O)[C@H](C)OCc1ccccc1)OC`, the “activity change, negative = inhibition” value is inactive: -0.0905%.
For `Cc1ccccc1NS(=O)(=O)c1nnc(NC(=O)c2ccccc2C)s1`, the “activity change, negative = inhibition” value is inactive: -14.4%.
The same measure, in the same setting: next, `Cc1csc(=Nc2c(C)n(C)n(-c3ccccc3)c2=O)n1Cc1ccccc1`: inactive: -0.884%; `CCOC(=O)[C@@H]1[C@H]2COc3cc(OC)ccc3[C@H]2N2C(=O)N(c3ccc(C(F)(F)F)cc3)C(=O)[C@@]12C`: inactive: 0.664%; `C[C@H]1NC(=O)[C@@]2(C)[C@@H](c3ccccc3)[C@H]3COc4ccccc4[C@@H]3N2C1=O`: inactive: -3.46%.
The same measure, in the same setting: under `Cc1cccc(Nc2nnc(SCC(O)=C(C#N)c3nc4ccccc4[nH]3)s2)c1` stands inactive: -10.6%.
As to `CC1CN(C(=O)c2ccc(S(=O)(=O)Nc3cccc(C(F)(F)F)c3)cc2)CC(C)O1` (configuration not stated), the Potency was active: 13 µM.
Take `COc1cc(NC(=O)Cn2c(=O)n(CC3CCCO3)c(=O)c3ccccc32)cc(OC)c1` (configuration not stated): the “activity change, negative = inhibition” value was inactive: -0.0465%.
The same measure, in the same setting: next, `CCOc1ccc(CCNc2nc3ccccc3n3c(C)nnc23)cc1OCC`: inactive: 11.5%; `Cc1cccc(C(=O)N[C@H](C(=O)Nc2cccc(S(=O)(=O)N3CCCC3)c2)C(C)C)c1`: inactive: -11.9%.
Same read-out and setting: next, `Cc1ccc(/C=C\c2nccc3c2[nH]c2ccccc23)cc1`: inactive: 11.7%.
Take `Cc1ccc(/C=C2/SC(=S)N(CCCC(=O)Nc3ccc(O)cc3)C2=O)cc1`: the Potency was active: 9.2 µM.
On to `O=C(COc1ccccc1Br)NCCc1nc2ccccc2[nH]1`, for which the “activity change, negative = inhibition” value was inactive: 3.86%.
Turning to `COc1cc(CC(=O)Nc2cccc(S(=O)(=O)N(C)c3ccccc3)c2)cc(OC)c1OC`, the Potency is active: 14.6 µM.
On the same count and under the same terms, under `COc1ccc(NCC(=O)Nc2cccc(S(=O)(=O)N3CCCC3)c2)cc1Cl` stands active: 18.4 µM; under `CCCc1ccc(-c2ccc(/C=C/C(=O)O)cc2)nc1`, active: 0.0366 µM; under `Cc1cccc(N2CCN(C(=O)CSCc3c(C)noc3C)CC2)c1C`, active: 1.84 µM.
As for `Fc1ccc(Nc2c(-c3ccco3)nc3ccccn23)cc1`, the activity change, negative = inhibition was inactive: 26.1% [at 9.27 µM].
Same read-out and setting: next, `O=[N+]([O-])/C(C(Cl)=C(Cl)Cl)=C(/Sc1ccccc1)N1CCCCC1`: inactive: -11.1%.
Same read-out and setting: next, `C[C@@H]1CCC[C@@]2(O[C@H](CCO)C[C@@H](O)[C@@H]2O)O1`: inactive: 11%; `C[C@H]1c2cccc(O)c2C(O)=C2C(=O)[C@]3(O)C(O)=C(C(N)=O)C(=O)[C@@H](N(C)C)[C@@H]3[C@@H](O)[C@@H]21`: inactive: -17.7%.

For the origin of these results see PubChem BioAssay AID504444 (National Center for Advancing Translational Sciences (NCATS), 2011).
